Screen size: about 48,000 compounds; about 1,200 (2.5%) were called active. Not shown: some 2% with an inconclusive outcome.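 The calls were made as follows: active = activation of at least 60% and not above a set upper limit (about 1 call in 100 departs from these limits); inconclusive = activation of 40% to 60%, or above that upper limit; inactive = activation under 40%.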 The list shows a part of the results.
What follows are compounds tested against Probable G-protein coupled receptor 32 (Homo sapiens) (UniProt O75388) (assay: qHTS for Agonists of Human Resolvin D1 Receptor DRV1). Conditions: CHO-K1 GPR32 beta-arrestin PathHunter luminescence, 90 min; at 76.9 µM; active compounds read high; zero percent set by DMSO-only wells.
UniProt O75388, sequence (O75388 whole entry, looked up): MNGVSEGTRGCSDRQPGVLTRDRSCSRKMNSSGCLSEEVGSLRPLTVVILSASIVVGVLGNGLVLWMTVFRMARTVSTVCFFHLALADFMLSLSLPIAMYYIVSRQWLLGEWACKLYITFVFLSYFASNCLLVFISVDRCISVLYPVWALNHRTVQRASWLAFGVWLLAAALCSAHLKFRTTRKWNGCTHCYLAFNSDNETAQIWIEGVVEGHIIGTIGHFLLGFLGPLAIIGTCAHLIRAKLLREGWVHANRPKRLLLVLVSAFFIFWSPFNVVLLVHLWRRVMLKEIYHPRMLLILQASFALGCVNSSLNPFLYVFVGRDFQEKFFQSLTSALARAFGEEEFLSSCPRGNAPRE
Summary of the method: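 Cells are plated overnight, treated with compounds in DMSO for 90 minutes at 37 °C, and developed with PathHunter detection reagent for 1 hour before luminescence is read; signal reflects beta-arrestin binding to GPR32 in engineered CHO-K1 cells.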
Also: 0% is about no effect.

SMILES	activation
CCOC(=O)c1c(C)[nH]c(C)c1S(=O)(=O)NCC(=O)Nc1cccc(SC)c1	inactive: 2.74%
CCC1CCc2nc3sc(C(=O)Nc4cccc(F)c4)c(N)c3cc2C1 (stereo not given)	inactive: 14.4%
CCN(CC)c1ccc(C(=O)NCc2nc3cccnc3n2Cc2ccc(C)cc2)cc1	inactive: -25.9%
Cc1ccc(C2N=C(N)Nc3nc4ccccc4n32)cc1 (stereo not given)	inactive: 17.2%
Cc1cccc(-c2nc3c4c(-c5ccccc5)c(-c5ccccc5)oc4ncn3n2)c1	inactive: 14.5%
COc1cccc2sc(N(Cc3cccnc3)C(=O)c3ccco3)nc12	inactive: -28.2%
Cc1nn(C)c(C)c1S(=O)(=O)N(CC(=O)NCCc1ccc(Cl)cc1)c1ccc(C(C)C)cc1	inactive: -14.5%
CCCCOc1ccc(C2=NC(c3cccs3)=Nc3ccc(OC)cc3N2)cc1	inactive: -25.7%
COc1ccc(OC)c(CNC(=O)c2c(C)oc3ncn(CC(C)C)c(=O)c23)c1	inactive: -22.8%
COc1ccc(NC(=O)c2c(NCc3cccc(F)c3)sc3c2CCC3)c(OC)c1	inactive: -3.12%
CSCCC(NS(=O)(=O)c1ccc2c(c1)oc(=O)n2C)C(=O)Nc1ccc(F)c(Cl)c1 (stereo not given)	inactive: -16.5%
Cc1cccc(NC(=O)c2cnc3sc(N4CCCC4)nn3c2=O)c1C	inactive: -9.15%
O=C(NCC(c1cccnc1)N1CCN(c2ccccc2F)CC1)c1ccc(F)cc1 (stereo not given)	inactive: 10.9%
Cc1cc(C)cc(NC(=O)Cc2csc(COc3cccc(C)c3)n2)c1	inactive: -20.8%
COc1ccc(C)cc1NC(=O)C(=O)NCCc1sc(-c2cccc(C)c2)nc1C	inactive: 9.52%
COc1cc2c(cc1OC)C(=O)CC2	inactive: 3.73%
Cc1ccccc1C(=O)Nc1ccc(S(=O)(=O)N2CCC(c3nc4ccccc4s3)CC2)cc1	inactive: -16.6%
CC(C)Cc1cc(C(=O)NCc2ccc(Cl)cc2)no1	inactive: 16.5%
CCCCc1ccc(-n2nc3ccc(NC(=O)c4cc5ccccc5o4)cc3n2)cc1	inactive: 28.1%
CCc1ccc2oc(-c3ccc(C)c(NC(=O)c4cc([N+](=O)[O-])ccc4N4CCOCC4)c3)nc2c1	inactive: 22.3%
COc1ccc(-n2c(=O)c3c4c(sc3n(Cc3ccc(F)cc3)c2=O)CN(C(C)=O)CC4)c(OC)c1	inactive: 0.446%
CCC(CC)C(=O)N1c2ccccc2C(C)(c2ccccc2)CC1(C)C (stereo not given)	inactive: 24.5%

SMILES	activation
COC(=O)CN1C(=O)CSc2ccc(S(=O)(=O)Nc3ccc(F)c(Cl)c3)cc21	inactive: 1.34%
CSc1ncc(C(=O)Nc2cc(C)cc(C)c2)c(-c2ccccc2)n1	inactive: 15.4%
COc1ccc(C(=O)NCCSc2c[nH]c3ccccc23)cc1OC	inactive: -17.1%
Clc1ccc(CSc2ccc(-c3cccs3)nn2)cc1	inactive: -15%
CN1CCN(C(CNC(=O)c2ccc(F)cc2)c2ccc3c(c2)OCO3)CC1 (stereo not given)	inactive: 10.3%
COc1ccc(OC)c(CCNC(=O)c2c(C)oc3ncn(CC(C)C)c(=O)c23)c1	inactive: 10.3%
Cc1cc(C)c(Cn2c(=O)n(CCC(=O)NCCc3ccccc3)c(=O)c3ccccc32)c(C)c1	inactive: -2.19%
CC(=O)N1CCc2c(sc3c2c(=O)n(Cc2ccccc2)c(=O)n3Cc2ccc(Cl)cc2)C1	inactive: -4.4%
Nc1ccc(C(=O)N2CC3CC(CN(Cc4ccccc4)C3)C2)cc1	inactive: -15.1%
O=C(O)c1sc(Nc2ccccc2)nc1-c1ccccc1	inactive: -4.05%
CCOC(=O)Cn1c(=O)oc2cc(S(=O)(=O)N3CCN(c4cccc(Cl)c4)CC3)ccc21	inactive: -0.781%
CCOCCCn1c(SCC(=O)Nc2ccccc2CC)nc2ccccc2c1=O	inactive: -16.5%
Cc1ccc(NC(=O)c2cccc3c(=O)c4c([nH]c23)CCCC4)c(C)c1	inactive: 4.24%
Cc1ccc(NC(=O)Nc2nnc(SCC(=O)N(C(C)C)C(C)C)s2)cc1	inactive: 40.5%
COc1cccc(CNC(=O)c2c(C)nn(-c3ccc(F)cc3)c2-n2cccc2)c1	inactive: 23.1%
CCOC(=O)c1sc2ccccc2c1S(=O)(=O)Nc1ccc(OC)c(Cl)c1	inactive: -40.5%
CCOc1ccc(NC(=O)Nc2nnc(N3CCCCC3C)s2)cc1 (stereo not given)	inactive: 8.97%
COc1ccc(N2CCN(C(=O)c3cc4c(=O)oc5ccc(C)cc5c4s3)CC2)cc1	inactive: -3.78%
Cc1ccc(N2CCN(S(=O)(=O)c3nnc(NC(=O)c4ccccc4)s3)CC2)cc1	inactive: 35.2%
Cc1c(C)n(Cc2ccccc2)c2ccc(C(=O)NCC(C)c3ccccc3)cc12 (stereo not given)	inactive: -17.3%
N[C@H](C(=O)O)[C@H]1C[C@@H]1C(=O)O	inactive: 0.873%
CCOC(=O)CNC(=O)c1cc2c(=O)oc3ccccc3c2s1	inactive: -4.13%

SMILES	activation
CCOc1ccc(CCNC(=O)c2ccc(-n3c(C)cc4c3CCCC4)cc2)cc1OCC	inactive: -11.9%
Cc1cc(C)n(CCC(=O)Nc2ccc(Cl)cc2)n1	inactive: 0.555%
Cc1ccc(C)c(N2CCN(c3nc4ccc(C)cc4nc3-n3nc(C)cc3C)CC2)c1	inactive: 1.32%
O=C(Nc1ccccc1C(=O)OCc1cc(=O)n2nc(C3CC3)sc2n1)c1ccc(Cl)cc1	inactive: -8.74%
O=C(Cn1cnc2nc3c(cc2c1=O)CCCC3)Nc1ccc(F)cc1Cl	inactive: -12.4%
CCOCCc1nnc(NC(=O)C(=O)c2cc(C)n(-c3ccc(C)c(C)c3)c2C)s1	inactive: 27.7%
CCCCNc1nc2c(S(=O)(=O)c3ccc(C)cc3)nnn2c2ccsc12	inactive: -9.51%
CCOc1ccc(N2CC(NC(=O)c3ccc4c(c3)OCO4)CC2=O)cc1 (stereo not given)	inactive: 5.17%
CCOc1ccc(CCNC(=O)c2ccc3c(c2)N(Cc2ccc(F)cc2)CCS3)cc1	inactive: -7.15%
COc1ccccc1CNC(=O)CSc1nc(-c2ccc(OC)c(OC)c2)cc(C(F)(F)F)n1	inactive: -21%
Cc1ccc(N2CC(NC(=O)c3ccc(S(=O)(=O)N(C)C)cc3)CC2=O)cc1C (stereo not given)	inactive: 4.89%
CCC(C)NC(=O)c1ccc2c(c1)sc1nc(-c3ccc(OC)cc3)cn12 (stereo not given)	active: 80.5%
COC(=O)c1sccc1S(=O)(=O)N(CC(=O)Nc1cc(C)ccc1C)c1ccc(C)c(C)c1	inactive: -13.7%
O=C(CSc1nc2c([nH]c3ccccc32)c(=O)n1-c1cccc(Cl)c1)N1CCCC1	inactive: 3.46%
O=C(Cn1cc(S(=O)(=O)Cc2cccc(Cl)c2)c2ccccc21)Nc1ccccc1C(F)(F)F	inactive: -8.08%
COc1ccc(N2CCN(C(=O)Nc3cn(CC(C)C)c(=O)c4ccccc34)CC2)cc1	inactive: -4.93%
O=C(Nc1cc(Cl)ccc1Cl)c1ccc2c(c1)N(Cc1cccc(Cl)c1)C(=O)c1ccccc1S2=O (stereo not given)	inactive: -10.9%
O=C(NCc1cccs1)c1ccc2c(c1)sc1nc(-c3ccc(F)cc3)cn12	inactive: -5.75%
Cc1c(Cl)cccc1NC(=O)c1cc(-c2ccc3c(c2)OCO3)on1	inactive: 9.07%
COc1c(Cl)cc(C(=O)Nc2cc(-c3nc4ccccc4[nH]3)ccc2C)cc1Cl	inactive: 5.4%
Cc1nn(-c2ccccc2)c(OC(=O)c2ccccc2)c1S(=O)(=O)c1ccccc1	inactive: -14.1%
Cc1ccc2oc(C(=O)Nc3c(C(=O)Nc4cccc(Cl)c4)oc4ccccc34)cc(=O)c2c1	inactive: 4.75%

SMILES	activation
Cc1ccccc1Cn1ccn(-c2ccc(F)c(F)c2)c(=O)c1=O	inactive: -5.01%
O=C(Nc1ccccc1C(F)(F)F)N1CCOc2ccc(Cl)cc21	inactive: 31.5%
Cc1ccc(N2C(=O)CS(=O)(=O)C23C(=O)Nc2ccccc23)cc1C (stereo not given)	inactive: 16.6%
CCOC(=O)CSc1nc2ccccc2c(=O)n1-c1ccc(C(=O)NCCOC)cc1	inactive: -12.8%
CCOC(=O)N1CCC(NC(=O)c2ccc3c(c2)N(Cc2ccccc2C)C(=O)c2ccccc2S3=O)CC1 (stereo not given)	inactive: -8.54%
CCOc1ccccc1-c1noc(CSc2nnc(-c3ccccc3)n2-c2ccc(OC)cc2)n1	inactive: 8.87%
CC(C)c1ccc(C2CC(=O)Nc3cc4c(cc32)OCCO4)cc1 (stereo not given)	inactive: 29.3%
CN(Cc1nc(-c2ccc(Cl)cc2)no1)S(=O)(=O)c1ccccc1	inactive: 19.4%
CCCn1c(=N)c(C(=O)NCC2CCCO2)cc2c(=O)n3cc(C)ccc3nc21 (stereo not given)	inactive: -7.54%
Cc1cccc(-c2nc(SCc3cc(=O)c4c(C)cc(C)cc4[nH]3)n[nH]2)c1	active: 116%
COCCN(CCOC)S(=O)(=O)c1ccc(C(=O)Nc2sc3c(c2C(N)=O)CCCC3)cc1	inactive: 1.04%
COc1ccc(S(=O)(=O)N2CCC(c3nc4ccccc4s3)CC2)cc1OC	inactive: 4.63%
O=C(Cn1ncc2c3ccccc3n(Cc3ccccc3)c2c1=O)NCCc1ccc(Cl)cc1	inactive: -5.26%
Cc1cccc(CSc2cn(CC(=O)N3CCOCC3)c3ccccc23)c1	inactive: -31.9%
O=C(Cn1nc2c(cc1=O)CCCC2)NCc1ccc(Cl)cc1	inactive: -5.77%
COc1cccc(NC(=O)Cn2nc(N3CCN(c4ccccc4)CC3)ccc2=O)c1	inactive: -15.6%
Cc1ccc(Cl)cc1-n1ncc2c(NCCc3ccccc3)ncnc21	active: 101%
CCCNC(=O)c1ccc2c(c1)N=C(CCC)c1ccccc1S2	inactive: -18.1%
CCN(C(=O)CN1C(=O)c2ccccc2Sc2ccc(C(=O)OC)cc21)c1cccc(C)c1	inactive: -26.8%

Reference: PubChem BioAssay AID1346428 (National Center for Advancing Translational Sciences (NCATS), 2018)
